Data taken from the supplement of paper PMC11417369.
± gives the standard deviation of the averaged measurements. This is one part of the list.

Tested on: PfAP2-I AP2 domain 3 (GST-tagged)
Assay: gcPBM binding intensity (ln(normalized median fluorescence intensity)); higher = stronger DNA binding
Procedure, shortened: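 Probes on an Agilent 4 × 180k array were primer-extended, double-stranded and 36 bp long, taken from intergenic genomic regions, with negative controls added. GST-tagged P. falciparum DNA-binding domains from E. coli, about 25 μg on average, were applied to the array for 1 h in 1× PBS containing 1% milk, 0.2 mg/ml BSA, 0.5% salmon testes DNA and 0.03% Triton X-100. Binding intensity, obtained after Alexa488 anti-GST antibody detection and a 488 nm scan, is the highest Masliner-normalised natural-log median intensity across replicate spots of either probe orientation.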

Row | Sequence | gcPBM binding intensity (ln)
1 | AGGAAAATACCTTAATGTACATAGAAAAGTAACATT [XGTACX_site8011] | 7.78 ± 0.52
2 | CACTTAACACAAGAGTGTACACATATATATATATAT [XGTACX_site686] | 9.61 ± 0.52
3 | GACATTGATACCAGTAGTACCTATAGATGTTTGTTT [XGTACX_site5736] | 7.84 ± 0.49
4 | TTATGGAATAATCACGTACACACAAGAAAAAAAAAA [CACACA_site526] | 8.1 ± 0.57
5 | ATTATATATAAGAAGAGTACTGAATATGTGCAATAT [XGTACX_site4471] | 10.3 ± 0.4
6 | TTATAGAAAATGGAATAGAATGGAATGGAAGAAATA [CACACA_negctrl_site1086] | 7.92 ± 0.73
7 | TATATACACCCACATACACACAAATAAAAAAACACC [CACACA_site3414] | 9.13 ± 0.092
8 | ATGTTGCACAGTGGAAGAATTAAAAATAAATAAATA [XGTACX_negctrl_site581] | 9.95 ± 0.32
9 | GTGGAACGTATATTTTCACACACTCTCAAAAGTACA [CACACA_site8722] | 7.72 ± 0.57
10 | AAATAATGTTTGAATTGTACACATATTTGTGTTTCT [XGTACX_site4603] | 7.66 ± 0.47
11 | ATGAACATATCAATTCTCAAAATAGGATGAGAGCAT [CACACA_negctrl_site230] | 7.63 ± 0.61
12 | AATATTATAAATGTCACACATATATTCAAATATATA [CACACA_site4736] | 7.61 ± 0.38
13 | AATTTTTGTATTTTTAGTACTTAATTTCAAAATAAC [XGTACX_site4234] | 7.7 ± 0.52
14 | GTGGAACATATGAACTCACACACATTTTCACTTAAA [CACACA_site3683] | 7.8 ± 0.57
15 | ATATAAGGATTAATATGTACATATATATATATATTT [XGTACX_site1390] | 7.83 ± 0.45
16 | TTTGTATATTATTTTAGTACATAACATTGAAGATAT [XGTACX_site6680] | 7.83 ± 0.24
17 | TATTTTGAAACTAAAAGACATAGAGAAAACAAAAAA [CACACA_negctrl_site1306] | 8 ± 0.79
18 | TTTATTGACAATTTATGTACATATAATTGAAAAATA [XGTACX_site6634] | 7.82 ± 0.21
19 | GAATGGACGTTAGGGGGTACGTATAAAATTTATCAA [XGTACX_site683] | 8.87 ± 0.24
20 | TTTGTGATATTATATTGTACCCTATATTTATTATAA [XGTACX_site4240] | 7.9 ± 0.47
21 | ATTTGTTACGGACATGCATGCGAATCAGGGTATATA [TGCATGCA_site154] | 8.1 ± 0.76
22 | TATAAAAAAAAAAAATATATATATATATAAATATAA [TGCATGCA_negctrl_site367] | 7.28 ± 0.37
23 | TAAGAAAAAAAAAAAAAAAAAAAAAAAAAAAAAAAA [CACACA_negctrl_site760] | 8.33 ± 1.1

Row | Sequence | gcPBM binding intensity (ln)
24 | TAAAAATATTTTCATTGTACATATATATAAATATAT [XGTACX_site1123] | 7.59 ± 0.3
25 | TCACCTATTTTTAACTGTACTGAAATGATATATATA [XGTACX_site1366] | 8.03 ± 0.47
26 | TAATGAAATTGTAGTAGTACCTTCTTATAAATAAAA [XGTACX_site6747] | 7.55 ± 0.4
27 | TTGAGGAAATAACAGTGTACAAACAAATTATTACCA [XGTACX_site7082] | 7.83 ± 0.49
28 | TACATATATATATATATATATATATATATCATTATG [XGTACX_negctrl_site293] | 8.5 ± 0.44
29 | GTTCAATTTTTAGGAAGTACAAAAAAAAAAAAGAAA [XGTACX_site7286] | 8.12 ± 0.028
30 | ATGGTACATACATACACACACACAAAAAAAAAAAAA [CACACA_site1578] | 8.12 ± 0.52
31 | TATATTTGTATTGTTTGTACTTATATGAATTTATAT [XGTACX_site4228] | 7.6 ± 0.42
32 | TATATTAGTGTTGACACACACAAAAAAAAAAAAAAA [CACACA_site1396] | 8.03 ± 0.61
33 | CAAACCTATATACAAACATGCAATCCACATATTGGT [TGCATGCA_site756] | 7.62 ± 0.61
34 | TTTTCCATAAGAATTACACACAGAAAGGATAAGTAT [CACACA_site105] | 8.04 ± 0.73
35 | CTTATATTAATTATTACACACATATTTATAAATGCA [CACACA_site6501] | 8.07 ± 0.47
36 | TATTACATACAATATTGTACATATCATATTTTGAAT [XGTACX_site2191] | 7.8 ± 0.52
37 | ACGGAAAAAGAAAAGGTGCATATGGACACAATATAT | 10.85 ± 0.099
38 | ATAGAAATATTATATTGTACGAACAGTTATTAACAA [XGTACX_site2137] | 7.83 ± 0.42
39 | ATTATTTGTTTAAATTCACACACGTATATATATTTA [CACACA_site3050] | 7.9 ± 0.55
40 | ACATGTAAATGGAAAAGTACTAATAACTTGTATTGG [XGTACX_site5181] | 7.75 ± 0.43
41 | ATATATAAATATATTACACACTTTTTCTTTTTTTTT [CACACA_site7332] | 7.59 ± 0.71
42 | TTATTTTAATATAAAATACACACTACTATTATAAAT [CACACA_site1470] | 7.74 ± 0.49
43 | TAATTATTAAAACATTGTACATTATTATAAACAATT [XGTACX_site4489] | 7.55 ± 0.4
44 | TATATATATATTATCACACACTCACGTTTGACAAAA [CACACA_site689] | 9.04 ± 0.23
45 | TTATTTATTTATTCATGTACGTGTATTTTTTAAAAA [XGTACX_site7915] | 8.15 ± 0.53
46 | TAATAAATACAAAAATGTACACACATATATATATTT [XGTACX_site7430] | 7.67 ± 0.39

Row | Sequence | gcPBM binding intensity (ln)
47 | AGTGTCATATTAACACGTACATAATTATTGTAGAGA [XGTACX_site568] | 8.11 ± 0.44
48 | ATTGGGTACAAATACACACACATATATATATTAAGA [CACACA_site5330] | 8.05 ± 0.33
49 | AAAGAAAAATTAACATGTACAAAAATTACTTGTTCA [XGTACX_site6725] | 7.25 ± 0.53
50 | GTATATAAATATATATATATATATATATCTATATTT [CACACA_negctrl_site871] | 7.82 ± 0.23
51 | GTATTTTTACAAATTTGTACATATATATGAATATAC [XGTACX_site6717] | 8.21 ± 0.38
52 | TCTGAAACAAGAAAAAGTACACAAATTACAAAACTA [XGTACX_site7641] | 8.045 ± 0.007
53 | AAAAAAAATTCACACTGTACAAAAGCATAAATAAAC [XGTACX_site5408] | 8.21 ± 0.65
54 | ATATTTACCTTTGTATGTACATATATAAAATATATC [XGTACX_site6367] | 8.16 ± 0.67
55 | TTTTGTAAAAAGAAAAATTAGAATATATCGTATATA [XGTACX_negctrl_site617] | 7.19 ± 0.45
56 | TATATAATAAAAAAAAGTACTTGGACAATATTATTT [XGTACX_site2802] | 7.88 ± 0.51
57 | TTAATTTACATGAACTGTACATAACATTTTTTTAAA [XGTACX_site4672] | 7.58 ± 0.53
58 | ATCAAAATATTTATATGTACATATTAAAAATATAGA [XGTACX_site725] | 7.63 ± 0.31
59 | ATCAACATCTAACATTGTACATGTGATGTGTAAAAG [XGTACX_site547] | 7.71 ± 0.52
60 | ATATTTGCCCAAGATAGTACATATATATATATATAT [XGTACX_site7756] | 9.485 ± 0.049
61 | AAATAGCCAAAAATCATGCACACCTAAAAAAAAAAA [CACACA_site2572] | 8.74 ± 0.35
62 | TATATATATATATATTGTACATATATTATTATATAT [XGTACX_site7447] | 9.25 ± 0.23
63 | ATATTGGAGCACAACACACACAAGTATATATATGGA [CACACA_site1546] | 8.39 ± 0.29
64 | CATACATACAAACACACACACACACCGATATATATA [CACACA_site8952] | 8.22 ± 0.76
65 | CACATACAGACATACACACACATATATATTAATATA [CACACA_site546] | 8.11 ± 0.33
66 | AATTCTCTTAATAAATAAACACAAATAAATAATAAA [GTGCAC_negctrl_site499] | 7.63 ± 0.45
67 | TTAACATATTTGTTAGTGCATTTTGATATTACACAT [GTGCAC_site9978] | 9.71 ± 0.13
68 | AAAAAAATTAAATGTACACACACCTTAAACAATGTC [CACACA_site1855] | 7.81 ± 0.35
69 | ATAAATAAATAAATAAATAAATAAATAAATATATAT [CACACA_negctrl_site1728] | 7.6 ± 0.45

Row | Sequence | gcPBM binding intensity (ln)
70 | ATTTATTTTATATGTTGTACAAACATTTTAAAACAT [XGTACX_site6919] | 7.79 ± 0.38
71 | TCTTTTTCTTGACGAGTGCAAAAATTGTGTTTGAAA | 9.95 ± 0.33
72 | CTAATATCTGTATGCACACACAATAAATACATATTT [CACACA_site5797] | 8.96 ± 0.028
73 | TTTTTTTAAAGAATTATCATAAAATGATTGCATCAT [XGTACX_negctrl_site141] | 7.39 ± 0.46
74 | AATGCCTTGTTGAGGTGTACTGAATGTTATTTTAAT [XGTACX_site3255] | 7.75 ± 0.52
75 | AAGGAAATATAATATACACACATAAGTGTACTTATA [CACACA_site4030] | 7.8 ± 0.092
76 | TAATAAAGTGAATAATGTACATTTTATTTATTATAT [XGTACX_site6614] | 7.68 ± 0.41
77 | ATTATATATCCCTATTCACACATGTATTATATAAAT [CACACA_site5486] | 8.29 ± 0.54
78 | GAAAAATTAAAAATAACACACACATATATATATTTA [CACACA_site8896] | 7.56 ± 0.4
79 | TCAGTAATACTTGAATGTACTTATATTGTTTGTTTG [XGTACX_site6449] | 7.5 ± 0.47
80 | CCTATATTAAAACAAGCACACAATCGCATAATATCC [CACACA_site9052] | 7.85 ± 0.79
81 | ATATTTTATTTATATACACACACATATATATATTAT [CACACA_site8177] | 8.06 ± 0.63
82 | TTCTTTATATACAAACCAAAATATTATGTATAATAA [CACACA_negctrl_site15] | 7.62 ± 0.33
83 | CTTTATATAAAATAAAGTACATAAATTATGATATAT [XGTACX_site3699] | 7.78 ± 0.42
84 | TAATTTTTTTTTATGATACACACTTGGATAATTAAA [CACACA_site562] | 7.8 ± 0.11
85 | TTATTATATATTTTATTTATTAATAGTATATATTAT [TGCATGCA_negctrl_site155] | 7.22 ± 0.46
86 | ATACATATAATATATGCATGTACCAATCAAATATAT [TGCATGCA_site192] | 7.75 ± 0.5
87 | TTATTCTAGTAGTGTGTGCGCATGGACAATGCAATA | 8.66 ± 0.27
88 | TATATATCGTTATATACACACATGTATATAAAAAAT [CACACA_site7501] | 7.8 ± 0.51
89 | AAGAAAAAATAAAGCACACAAATATTTTAAAAACAC [CACACA_site3325] | 9.67 ± 0.18
